Test results reported in PubChem BioAssay AID1745853 (National Center for Advancing Translational Sciences (NCATS), 2022).
Values joined by “and” are separate entries in the source; they are usually repeats but may differ in a detail not shown here. Equal values may be shown once. The list shows a part of the results. Shown are side measurements of this screen, not its main read-out; they come without a call.

Experiments:
Assay in all cases: Primary Screen for Target Class Profiling of Small Molecule Inhibitors of Methyltransferases
[1] = target: Glycine N-methyltransferase (Homo sapiens) (UniProt Q14749); details: purified enzyme, MTase-Glo SAH luminescence; measured here: GNMT inhibition; at 40 µM; stronger effect = lower value
Method in brief: (§1)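 Each enzyme was reacted with SAM and its substrate, with compounds tested once at 40 uM; SAH formed was read by MTase-Glo luminescence.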

[2] = target: Guanidinoacetate N-methyltransferase (Homo sapiens) (UniProt Q14353); details: purified enzyme, MTase-Glo SAH luminescence; measured here: GAMT inhibition; at 40 µM; stronger effect = lower value
Method in brief: as §1

[3] = target: Histamine N-methyltransferase (Homo sapiens) (UniProt P50135); details: purified enzyme, MTase-Glo SAH luminescence; measured here: HNMT inhibition; at 40 µM; stronger effect = lower value
Method in brief: as §1

[4] = target: Nicotinamide N-methyltransferase (Homo sapiens) (UniProt P40261); details: purified enzyme, MTase-Glo SAH luminescence; measured here: NNMT inhibition; at 40 µM; stronger effect = lower value
Method in brief: as §1

[5] = target: Phenylethanolamine N-methyltransferase (Homo sapiens) (UniProt P11086); details: purified enzyme, MTase-Glo SAH luminescence; measured here: PNMT inhibition; at 40 µM; stronger effect = lower value
Method in brief: as §1
On the % scale 0 is the no-effect control and ±100 the full control effect.

Row | SMILES | activity change, negative = inhibition [1] | activity change, negative = inhibition [2] | activity change, negative = inhibition [3] | activity change, negative = inhibition [4] | activity change, negative = inhibition [5]
1 | COc1ccccc1CNC(=O)C1c2c(n(C)c3ccccc23)SCC(=O)N1c1ccc2c(c1)OCO2 (stereo unspecified) | 6.28% | 1.09% | -0.156% | -2.32% | 3.33%
2 | Cc1cc(C)n(-c2nc3cc(Cl)ccc3nc2Nc2ccc3c(c2)n(C)c(=O)n3C)n1 | -7.31% | 2.16% | -1.53% | 6.46% | -4.07%
3 | Cc1cc(N=Nc2ccc(S(=O)(=O)Nc3ccccn3)cc2)c(N)cc1O | -24.5% | -9.52% | -15% | -31% | -20.4%
4 | CC(=O)O[C@H]1[C@@H](O)[C@H](O[C@H]2[C@@H]3C=CO[C@@H](O[C@H]4O[C@@H](CO)[C@H](O)[C@@H](O)[C@@H]4O)[C@@H]3[C@@]3(CO)O[C@@H]23)O[C@@H](C)[C@@H]1OC(=O)/C=C/c1ccccc1 | -1.48% | 2.71% | -25.2% | -7.51% | 1.52%
5 | CC(CN1C(=O)c2nc3ccccc3n2CC1(C)C(=O)NC1CCCCC1)c1ccccc1 (stereo unspecified) | -4.1% | 3.53% | -4.76% | -3.61% | -5.75%
6 | CCCn1c(=O)c2ccc(C(=O)NC(C)C)cc2n2c(=O)n(Cc3ccc(F)cc3)nc12 | 5.48% | 3.13% | 11.4% | 1.35% | 9.69%
7 | COC1CC(=O)CCC(C)OC(=O)CC1O (stereo unspecified) | 0% | 5.89% | 5.08% | -5.33% | 4.95%
8 | CC1(C(=O)NC2CCCCCC2)Cn2c(ccc2-c2ccco2)C(=O)N1C1CCCCCC1 (stereo unspecified) | -14.8% | 3.32% | -8.48% | -26.5% | -4.48%
9 | CCOc1ccc2ccccc2c1C(C(=O)O)N1CCN(CC2CC2)CC1 (stereo unspecified) | -8.79% | -9.41% | -3.45% | -15.2% | -8.69%
10 | N#CC(c1ccnc(OCc2ccc(CN3CCOCC3)cc2)n1)c1nc2ccccc2s1 (stereo unspecified) | -8.99% | -5.47% | -1.79% | -19.6% | -3.1%
11 | COc1ccc(-c2n[nH]n3c2nc(=O)c2ccc(C(=O)NCc4ccc(Cl)cc4)cc23)cc1 | -1.21% | 0.681% | 3.97% | 5.52% | 0.015%
12 | CC(=O)O[C@@H]1[C@@H](OC(=O)/C=C/c2ccccc2)[C@H](C)O[C@@H](O[C@H]2[C@@H]3C=CO[C@@H](O[C@@H]4O[C@H](CO)[C@@H](O)[C@H](O)[C@H]4O)[C@@H]3[C@@]3(CO)O[C@@H]23)[C@@H]1OC(C)=O | 0% | 8.7% | 8.04% | -4.86% | 9.04%
13 | CC1CCC(NC(=O)C2(C)Cn3c(nc4ccccc43)C(=O)N2CCN2CCOCC2)CC1 (stereo unspecified) | 0.761% | 2.73% | 5.89% | 5.07% | -0.453%
14 | CCOc1ccccc1CN1C(=O)c2cc3occc3n2CC1(C)C(=O)NC1CCCCCC1 (stereo unspecified) | 3.08% | 0% | 5.17% | -3.7% | -3.56%
15 | COC(=O)c1cc2n(n1)CC(C)(C(=O)NC1CCC(C)CC1)N(c1ccc(C)cc1C)C2=O (stereo unspecified) | 3.11% | 4.19% | 6.45% | 3.11% | 1.07%
16 | CN1CCN(C(=O)CC[C@@H]2CNC(=O)[C@@H]3C[C@H](NC(=O)c4cccc(F)c4)CN23)CC1 | -1.67% | -2.93% | -1% | -2.1% | -1.31%
17 | CC(C)Oc1ccc(CN2C(=O)c3cc4ccccc4n3CC2(C)C(=O)NCc2ccccc2)cc1 (stereo unspecified) | 2.62% | 0% | 1.32% | 0.825% | -3.04%
18 | Cc1csc(NC(=O)c2nc3c(o2)CCN(Cc2ccccc2F)CC3)n1 | -8.68% | -4.79% | -0.966% | -2.9% | -5.53%
19 | CCN(CC)CCCNC(=O)CCc1nnc2n(Cc3ccc(F)cc3)c(=O)c3ccccc3n12 | -9.03% | -4.3% | -55% | 0.37% | -6.49%
20 | CCCn1c(=O)c2ccc(C(=O)NCC(C)C)cc2n2c(=O)n(CC(=O)Nc3ccccc3)nc12 | 2.56% | 0% | 2.44% | 3.56% | 2.26%

Row | SMILES | activity change, negative = inhibition [1] | activity change, negative = inhibition [2] | activity change, negative = inhibition [3] | activity change, negative = inhibition [4] | activity change, negative = inhibition [5]
21 | O=C(c1ccc(Br)cc1)N1CCN(c2cc(-c3ccccc3)[nH]n2)CC1 | -17.6% | -12% | -8.13% | -18.3% | -19.4%
22 | CCCN1C(=O)c2c(C(=O)NCc3ccc(SC)cc3)ncn2CC1(C)C(=O)NCCC(C)C (stereo unspecified) | -1.31% | 4.4% | -3.03% | -4.28% | 1.23%
23 | Cc1ccc(C(=O)Cn2nc3n(CC(C)C)c(=O)c4ccccc4n3c2=O)c(C)c1 | 2.45% | 1.06% | 7.85% | -2.03% | 3.55%
24 | CC(=O)C1=CCC2C3CC=C4CC(O)CC(O)C4(C)C3C(O)CC12C (stereo unspecified) | -4.32% | 2.88% | -5.37% | -9.92% | -0.383%
25 | COC(=O)C1=COC(OC2OC(CO)C(O)C(O)C2O)C2C1C=CC2(O)CO (stereo unspecified) | 2.06% | 2.01% | 7.68% | -9.61% | 5.24%
26 | CC(C)NC(=O)c1ccc2c(=O)n(C3CC3)c3nn(CC(=O)Nc4ccc(Cl)cc4)c(=O)n3c2c1 | 3.59% | 6.55% | 10.3% | -3.98% | 4.01%
27 | COc1ccc(CNC(=O)Cn2c(=O)oc3cc(S(=O)(=O)N4CCCC4)ccc32)cc1 | -1.82% | 0% | 0.926% | -2.86% | -8.77%
28 | C[C@H](O)[C@H](O)/C=C/c1cccc(O)c1CO | 0.271% | 1.76% | 6.73% | -10.5% | -3.8%
29 | COc1c2c(nc3occc13)C(CC=C(C)C)(OC)C(O)CC2 (stereo unspecified) | 0% | -10.8% | 3.64% | -22.7% | -9.12%
30 | COCCc1noc(-c2ccc(Cn3nc(C)cc3C)cc2)n1 | -1.85% | -4.27% | -0.444% | -6.01% | 0.439%
31 | CN1C[C@@H](NC(=O)c2ccc(C#N)cc2)C[C@H]1c1nc(Cc2ccccc2)no1 | -7.75% | -6.13% | -3.12% | -9.16% | 7.17%
32 | C[C@]1(OC(=O)/C=C\c2ccc(O)cc2)C[C@@H](O)[C@]2(O)C=CO[C@@H](O[C@@H]3O[C@H](CO)[C@@H](O)[C@H](O)[C@H]3O)C12 (stereo partly specified) | -2.12% | -0.48% | 10.7% | -11.7% | -8.03%
33 | CCOC(=O)c1cc2n(n1)CC(C)(C(=O)NCCC(C)C)N(Cc1cccc(F)c1)C2=O (stereo unspecified) | -7.18% | 1.5% | -7.47% | -3.17% | -7.57%
34 | CCCCNc1cc(C(=O)O)cc(S(N)(=O)=O)c1Oc1ccccc1 | 2.78% | 8.34% | 12.3% | -9.4% | -1.67%
35 | Fc1ccc2[nH]c(CN3CCN(c4ccccn4)CC3)cc2c1 | -8.27% and -4.89% | 1.18% and -9.73% | -0.653% and -3.67% | -11.3% and -22.9% | 2.46% and -13.7%
36 | O=C(NC1CCC1)c1ccc(C#Cc2cccc(F)c2)nc1 | -4.25% | -6.77% | 4.78% | -15.3% | -11.8%
37 | CCCn1c(=O)c2cc(Cl)ccc2n2c(=O)n(CC(=O)Nc3ccc4c(c3)OCO4)nc12 | -0.502% | 2.58% | 4.14% | 0.201% | -1.08%
38 | COc1cccc(CN2C(=O)c3ccc(-c4ccccc4)n3CC2(C)C(=O)NC2CCCC2)c1 (stereo unspecified) | 4.95% | 5.92% | 7.36% | 0.129% | 4.18%
39 | COC(=O)Cc1c(-c2ccccc2)c2cc(C)ccc2[nH]c1=O | -9.67% | 0% | 7.86% | 0.736% | 0.879%
40 | CCOc1ccc(N2C(=O)c3cc4occc4n3CC2(C)C(=O)NC2CCCCCCC2)cc1 (stereo unspecified) | -2.34% | 4.89% | 3.57% | 4.92% | -2.55%

Row | SMILES | activity change, negative = inhibition [1] | activity change, negative = inhibition [2] | activity change, negative = inhibition [3] | activity change, negative = inhibition [4] | activity change, negative = inhibition [5]
41 | CC1(C(=O)NCc2ccccc2)Cn2nc(-c3ccccc3)cc2C(=O)N1Cc1ccccc1Br (stereo unspecified) | 1.86% | 5.06% | 0.795% | -0.77% | -15.3%
42 | CCCCCCCCCC[Si](C)(C)CCC(=O)NC(Cc1ccc(C)cc1)c1ccccc1 (stereo unspecified) | -3.23% | 8.24% | 1.84% | -2.28% | 10.8%
43 | O=c1[nH]c2ccc(C#CCN3CCC(Cc4ccccc4)CC3)cc2[nH]1 | -11% | -0.278% | -38% | -30.7% | -6.67%
44 | C/C=C(\C)C(=O)O |  | -6.43% |  | -7.32% | 5.8%
45 | Cc1cc(-c2cnc(N)c3c(-c4ccc5scnc5c4)csc23)n(C)n1 | -14% | -3.93% | -7.84% | -30.4% | -13.4%
46 | CN1CCC(Nc2ncc3ncnc(Nc4ccc(F)c(Cl)c4)c3n2)CC1 |  | -28.7% |  | -38.8% | -19.7%
47 | C=C[C@@](C)(O)CC/C=C(\C)C(=O)O[C@@H]1[C@@H]2O[C@]2(C)[C@H]2[C@H](O[C@@H]3O[C@H](CO)[C@@H](O)[C@H](O)[C@H]3O)OC=C[C@@]12O | 0.643% | 1.71% | 8.55% | -8.85% | -1.01%
48 | CC1(C(=O)Nc2ccccc2)CCc2cnc(N3CCOCC3)nc21 (stereo unspecified) | -9.99% | -10.8% | -6.45% | -25.5% | -13%
49 | C=Cc1ccc(Cn2nc3n(Cc4ccc(C)cc4)c(=O)c4ccc(C(=O)NC(C)C)cc4n3c2=O)cc1 | 5.24% | 4.71% | 11.1% | 2.44% | 5.91%
50 | O=C(C1CCCCC1)N1CCC(n2cc(-c3nc(-c4ccccc4)no3)nn2)CC1 | -6.61% | -10.5% | -3.4% | -12.6% | -11.3%
51 | CC(C)CCn1c(=O)c2ccccc2n2c(CCC(=O)NC(C)c3ccccc3)nnc12 (stereo unspecified) | -11% | 0% | 1.29% | -13.5% | 1.77%
52 | COc1ccc(OC)c(CCN2C(=O)c3cc4oc(C)cc4n3CC2(C)C(=O)NC2CCCCC2)c1 (stereo unspecified) | -0.836% | 3.41% | 0.644% | -0.608% | -3.07%
53 | CCC#CCN1CCc2ccccc2N(CC(O)COCc2ccco2)CCC1=O (stereo unspecified) | -2.63% | 0.21% | 3.1% | -4.72% | 1.32%
54 | O=C(Cn1nc(-c2ccccc2)c2ccccc21)N1CCN(c2ccc(F)cc2)CC1 | -1.44% | 1.51% | 8.12% | 1.54% | 2.86%
55 | COc1ccc(OC)c(CNC(=O)c2cc3n(n2)CC(C)(C(=O)NCCC(C)C)N(C)C3=O)c1 (stereo unspecified) | 10.1% | 1.04% | 8.45% | 8.81% | 4.96%
56 | CCNC(=O)CC1COCCN1C(=O)c1csc(-c2cccs2)n1 (stereo unspecified) | -2.14% | -3.31% | 2.04% | -1.52% | 0.455%
57 | O=C(CCc1nnc2n(Cc3ccc(F)cc3)c(=O)c3ccccc3n12)NCc1ccc(F)cc1 | -4.83% | 1.03% | 9.88% | 17.4% | 3.4%
58 | CCCn1c(=O)c2ccc(C(=O)NCC(C)C)cc2n2c(=O)n(Cc3cccc(OC)c3)nc12 | 4.6% | 1.85% | 7.48% | 0.845% | 1.07%
